The supplement of paper PMC10126150
Sequences with one replicate were seen in a single cluster, so their values are uncertain.

Test system: ATP
Assay: switch fluorescence ratio, 500 uM ATP over buffer (Cy3 cluster intensity, sum of 5 cycles each) (fold (ratio)); higher = stronger signal-on switching upon ATP binding; sequences stand for … in TCGTCGGCAGCGTCAGATGTGTATAAGAGACAGTTTTTTTTTTTTTTTTTTTTTTTTT…TC
Settings: aptamer strand: ATP DNA aptamer (quencher-CACCTGGGGGAGTATTGCGGAGGAAGG + anchor), 100 nM annealed; ATP concentration: 500 uM; one replicate
Method in brief: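 Cy3-labelled switching-strand clusters on a modified Illumina MiSeq flow-cell were annealed to 100 nM quencher-labelled ATP aptamer and imaged first in selection buffer, then after 15 min with 500 uM ATP at 22 °C. NaOH stripping and re-annealing separated each of five buffer/ATP cycles, and clusters outside 100-1000 RFU were excluded. The fluorescence ratio sums target-cycle Cy3 intensity over buffer-cycle Cy3 intensity per cluster and averages it per switch-domain sequence.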
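Further: ATP exposure 15 min at 22 °C before imaging.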

Row | Sequence | switch fluorescence ratio
1 | TAAAATGTGG | 0.986
2 | AACGGCTGCG | 0.934
3 | CATCAAGCAC | 2.17
4 | GGATTTGCTC | 0.976
5 | GACGCGGGTG | 1
6 | GATTAGAATA | 1
7 | TTAGCGAAAA | 1.01
8 | CAGCAAACGT | 1.43
9 | AAATTTCCTA | 1
10 | TTGCACGCTC | 1.07
11 | TCCTCCGTTT | 4.75
12 | AGCGGGACAG | 1
13 | GCTGTCAGAT | 1.02
14 | AGGTGAGCCA | 0.98
15 | ATGCCAGCCG | 1.01
16 | AAGGCTTTAG | 1.06
17 | AGAAAAGTCA | 1.01
18 | CGATCACAGC | 1.08
19 | TGCAGAGGAT | 1.03
20 | TTATGGCAGC | 1.02
21 | CCAGCGACGG | 1.05
22 | ACCAGCTTGA | 1.05
23 | ACTTTACGT | 1.35

Row | Sequence | switch fluorescence ratio
24 | GCAATAAAAA | 1.04
25 | TCGGTTGTAT | 0.96
26 | TTCGGGGATC | 0.975
27 | GCTGATAACT | 0.993
28 | CTGCCTGGTA | 0.989
29 | CTCCCATGGG | 0.997
30 | TTCCCTGGTC | 1.58
31 | AAAGTAGT | 0.992
32 | TGTTCACATG | 1.01
33 | GAAACGGTTC | 1.06
34 | ATGGAGAGAT | 0.944
35 | TTAGCATTAA | 1.9
36 | CTATCCATCC | 1.14
37 | TATCTACCAG | 1.02
38 | GGGGTTTGAC | 1
39 | ATTGCCGCGT | 1
40 | GAGGGAAAGC | 0.984
41 | GTCGGAGTTG | 0.962
42 | GCCTGCCGCG | 1.2
43 | CACGGGGATA | 1.03
44 | ACCAGAGAGG | 1.02
45 | GCCTGACGGA | 1.17
46 | CTCTAGTTTT | 0.944

Row | Sequence | switch fluorescence ratio
47 | CGTGGGACGT | 1
48 | ACTAGACGGA | 1.06
49 | ATAAAGATCA | 1.01
50 | GCATACCCGT | 1.06
51 | TATGGACGGC | 0.963
52 | TACTCAGATG | 1.06
53 | CGGCTGGATA | 0.995
54 | CGGCCGCGG | 0.983
55 | CATTGGTTAC | 1
56 | ACGAGATCAT | 1.03
57 | TTCGGAGCCG | 1.1
58 | ACCGCTCAAC | 4.68
59 | CGTACTGGTG | 1.01
60 | TTCTAGTTTG | 1
61 | AAGCACGGGT | 1.02
62 | AGTAGAGGAG | 0.95
63 | CTGCGCTGCG | 1.05
64 | TTTAAGTGCC | 1.01
65 | AATTCATCGT | 0.956
66 | AAGATCTCA | 0.966
67 | AAAAGAATTG | 1.04
68 | GGGTTACGTG | 0.98
69 | TTAATTGCAT | 1.01

Row | Sequence | switch fluorescence ratio
70 | ACCTAACACT | 1.19
71 | GAATTCTTCG | 1.08
72 | ACGGGAATGT | 1
73 | CGAAGGGAGT | 1.02
74 | AGGCTGAAAC | 1
75 | TGATTCCATA | 1.02
76 | CAAGCGGGTG | 1.14
77 | AGGTCCCTTC | 1.04
78 | CTCAGCATCC | 2.01
79 | GAAAGACCTA | 1.01
80 | TGCAAGTCGT | 1.02
81 | GAACGAGCTC | 1.01
82 | TAGAATCGAC | 0.994
83 | TTGATGATCT | 0.979
84 | GGCGAAGCTG | 1.03
85 | GGTGAACAAG | 0.966
86 | TGGAAATGGT | 1
87 | GTTGGGCGTC | 1.02
88 | TTCAATTCGT | 1.03
89 | TCGGTAAAG | 0.951
90 | CCACGAATAT | 1.07
91 | TCAATGCACA | 1.07
92 | ATGTGATTAT | 1.02

Row | Sequence | switch fluorescence ratio
93 | GTTGTTCTC | 1.01
94 | GCTCCTTTAG | 1.04
95 | CCTTTTGACA | 1
96 | GTGAACGG | 0.988
97 | GGACCACGGT | 1.01
98 | GTGGTGTGCA | 0.946
99 | GGGCTCGGCT | 0.984
100 | GGTAGGTGAT | 1
101 | TGATACGGAC | 1.56
102 | CTTGTGTTTT | 0.98
103 | GCAGGCAAAG | 0.993
104 | TTACGTTGTG | 1.02
105 | GATATGCGGA | 0.991
106 | CGCTAGGCCC | 1.09
107 | TGTCTTCAG | 1.02
108 | AGATGAAATG | 1.02
109 | TAAGGGGAG | 0.976
110 | ATATTCTCTC | 1.16
111 | CCAGGCACAT | 1.21
112 | GGCGTTAGTA | 1.03
113 | GCGGTTTTCC | 1.1
114 | AGAGGTTGAA | 0.963
115 | TAAAATAAGC | 1.04

Row | Sequence | switch fluorescence ratio
116 | GAGGACGATT | 1.01
117 | GCGACTTGAT | 0.992
118 | AAGATCGTAT | 0.924
119 | ATAAACAGTG | 0.999
120 | ACGTGCCGGC | 0.997
121 | GGGCGAGGCT | 0.989
122 | GTATTTCATC | 1.01
123 | GGTGAGAGTA | 0.959
124 | AATGTTGTAA | 1.03
125 | ATAAACTGCT | 0.951
126 | GAATTAGCAT | 1
127 | TATGCACTTT | 1.05
128 | ATTTTGAAGT | 0.999
129 | TTTCATATC | 1.06
130 | ATTTCTCGTA | 0.963
131 | AGCTGTAAGG | 1
132 | ACTAAACAAA | 1.02
133 | GGATATAGCA | 1.02
134 | AGACGTAGGT | 0.953
135 | GCGATGGTCT | 1.06
136 | AAGTCGTTAA | 1.02
137 | TTCGACAATT | 0.989
138 | CCGGTTGTA | 1.11

Row | Sequence | switch fluorescence ratio
139 | TGTTATCACG | 1.07
140 | CCGGGGATTA | 1.05
141 | TTTTTAGTGA | 0.954
142 | CCTTGATGG | 1.02
143 | AGTCAGATGA | 1.05
144 | CGCGTCATCA | 0.979
145 | TTTTCTGACA | 1
146 | CGCGGTGAGG | 0.981
147 | TCTGTGTCCC | 1.03
148 | CGGGAAAAGC | 0.98
149 | ACGTCTTCGC | 1.06
150 | ATTAGGTGGT | 1.02
151 | ATTTTTAAGT | 1
152 | AATTCAGAGT | 0.947
153 | AAAGAATTTA | 0.97
154 | ACGGTCTAGC | 1.06
155 | ATAATTTTGT | 0.998
156 | AAATATTCTT | 1.04
157 | ATAAGTGTA | 1.01
